Measurements from PubChem BioAssay AID624418 (National Center for Advancing Translational Sciences (NCATS), 2012).
The campaign covered roughly 410,000 compounds. About 530 (0.13%) were called active. The inconclusive results got no clear call from the source; some entries with a clear call stand among them for comparison. The call rests on the fitted dose curve; in most records, active means well fitted inhibition curve with a large enough effect; inconclusive means small, poorly fitted or top-dose-only effect, or another doubt; inactive means no such curve, though single readings can be large or run the other way. A potency beside an inconclusive call is a rough fit, not a confirmed value.

Test: qHTS of GLP-1 Receptor Inverse Agonists: Cytotox Screen
Conditions: HEK293 cAMP-luciferase reporter cells, luminescence, 24 h; activity change, negative = inhibition: at 38.3 µM (top of the series) unless noted
Method in brief: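 Cells in DMEM/10% Nu serum/1% pen-strep, 1536-well format. Pre-incubated 12 h, dosed with 23 nL compound, incubated a further 24 h. Luciferase detection, 12 min at room temp, luminescence.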
On the % scale 0 is the no-effect control and ±100 the full control effect; potency means the concentration at half of the fitted maximal effect.

Compound | activity change, negative = inhibition | Potency
O=c1[nH]c(=S)[nH]c2c1C(c1ccc(F)cc1)OC(C1CCCCC1)C2 (stereo not drawn) | inactive: 3.48% | 
NC(=S)N/N=C/c1ccc(Br)o1 |  | inconclusive: 28.2 µM [inhibitor, single point]
COc1ccc(NC(=O)CCCc2nnc3n(C)c(=O)c4sccc4n23)cc1 | inactive: 0.399% | 
OCCNCCCCOc1ccc(OCc2ccccc2)cc1 |  | inconclusive: 15.8 µM [inhibitor, partial curve, poor fit]
CCCCOc1cccc(C(=O)Nc2cc3nn(-c4ccc(F)cc4)nc3cc2C)c1 | inactive: -8.02% | 
CN(C)C(=S)NC(=O)c1cccc(Cl)c1 |  | inconclusive: 10 µM [inhibitor, single point]
CC(=O)Nc1ccc(SCC(=O)N(CCC#N)c2ccc(C)cc2)cc1 |  | inconclusive: 10 µM [inhibitor, partial curve, poor fit]
Cc1cc2ccccc2n1-c1ccc(C(=O)N2CCCCC2)s1 | inactive: -1.11% | 
O=C1NC(=S)S/C1=C\c1cc(Cl)cc(Cl)c1O |  | inconclusive: 22.4 µM [inhibitor, single point]
CC(C)(c1ccccc1)c1ccc(OCC(O)CN2CCCC2)cc1 (stereo not drawn) |  | inconclusive: 12.6 µM [inhibitor, single point]
Cc1ccc(S(=O)(=O)NN2C(=O)/C(=C/c3ccccn3)SC2=S)cc1 |  | inconclusive: 10 µM [inhibitor, single point]
COc1cccc(-c2csc(NNC(=O)c3cccs3)n2)c1 |  | inconclusive: 15.8 µM [inhibitor, single point]
COc1cc(NC(=O)c2cc3c(=O)oc4ccc(C)cc4c3s2)cc(OC)c1OC | inactive: 6.74% | 
CCCOC(=O)C1=C(C)NC2=C(C(=O)CC(C)(C)C2)C1c1ccc(N(C)C)cc1 (stereo not drawn) | inactive: -16.4% | 
O=C(Nc1cccc(-c2csc(Nc3ccc(Cl)cc3)n2)c1)c1ccccc1 |  | inconclusive: 22.4 µM [inhibitor, single point]
O=C(NC1CCCCC1)N1CCN(c2nc(-c3ccccc3)cs2)CC1 | inactive: -7.22% [at 7.66 µM] | 
Cc1cc2nc3c(=O)n(CCc4ccccc4)c(=O)[nH]c3nc2cc1N | inactive: 238% | 
Cc1c(C(=O)OCC(=O)N2CCCC(C)C2)oc2ccccc12 (stereo not drawn) | inactive: 10.5% | 
O=C(NNC1=C(C(=O)C(F)(F)F)CCC1)c1cccc(Cl)c1 |  | inconclusive: 12.6 µM [inhibitor, partial curve]
CCN(CC)CC(=O)Nc1ccc2c(c1)Nc1ccccc1CC2 |  | inconclusive: 28.2 µM [inhibitor, single point]
Oc1c(C2=NCCNC(C(F)(F)F)=C2)ccc2ccccc12 |  | inconclusive: 28.2 µM [inhibitor, single point]
NC(=S)NN=C1Cc2cccc3cccc1c23 |  | inconclusive: 3.98 µM [inhibitor, full curve, poor fit]
COc1ccc(NC(=O)CC2C(=O)N(c3ccc(C)cc3)C(=O)N2CCc2ccccc2)cc1 (stereo not drawn) | inactive: -1.88% | 

Compound | activity change, negative = inhibition | Potency
CCc1ccc(CN2CCN(C(=O)c3cccc(OC)c3OC)CC2)cc1 | inactive: -2.63% | 
CC(C)c1cc(C(=O)N/N=C/C(Br)=C/c2ccccc2)n[nH]1 |  | inconclusive: 6.31 µM [inhibitor, partial curve, poor fit]
Cc1ccn2cc(CSc3ccccc3)nc2c1 |  | inconclusive: 28.2 µM [inhibitor, single point]
Cc1noc(/C=C/c2cccnc2)c1[N+](=O)[O-] |  | inconclusive: 22.4 µM [inhibitor, single point]
CCN1CCS/C1=C\C=C\C1=[N+](CC)CCS1 |  | inconclusive: 11.2 µM [inhibitor, partial curve, poor fit]
COc1ccc2c(CC(=O)OCC(=O)Nc3cccc(S(N)(=O)=O)c3)coc2c1 |  | inconclusive: 0.794 µM [inhibitor, full curve, poor fit]
CCN(CC)CCOc1ccc(/C(=C(\Cl)c2ccccc2)c2ccccc2)cc1 |  | inconclusive: 22.4 µM [inhibitor, single point]
Cc1ccccc1C(=O)N/N=C/c1ccc([N+](=O)[O-])s1 |  | inconclusive: 25.1 µM [inhibitor, partial curve, poor fit]
CCCn1nc(C(=O)Nc2ccc3nc(N4CCOCC4)sc3c2)ccc1=O | inactive: -23.3% | 
CCOC(=O)C1CCN(C(=S)NC(=O)c2cccs2)CC1 |  | inconclusive: 28.2 µM [inhibitor, single point]
CCOc1ccc(OCCn2c(=S)[nH]c3c(N)ncnc32)cc1 | inactive: -0.0908% | 
Cc1[nH]nc2c1C(c1cc(Br)cs1)C(C#N)=C(N)O2 (stereo not drawn) |  | inconclusive: 10 µM [inhibitor, partial curve, poor fit]
CCCCCCCN1CCC(=O)N(CCO)CC1 |  | inconclusive: 10 µM [inhibitor, partial curve]
CN(CC(=O)Nc1ccc(Cl)c(C(F)(F)F)c1)C(=O)CCN1C(=O)C2CC=CCC2C1=O (stereo not drawn) |  | inconclusive: 11.2 µM [inhibitor, single point]
CCC(NC(=O)CCl)c1ccc(C)cc1 (stereo not drawn) |  | inconclusive: 28.2 µM [inhibitor, single point]
O=C1C=C(N(CCO)Cc2ccccc2)c2ccccc2C1=O | inactive: 5.86% [at 0.307 µM] | 
O=C(CSc1cccc[n+]1[O-])C12CC3CC(CC(C3)C1)C2 |  | inconclusive: 28.2 µM [inhibitor, single point]
Fc1ccc2c(c1)/C(=N/Nc1ccccn1)CCS2 |  | inconclusive: 28.2 µM [inhibitor, single point]
O=C(CSc1nc2ccccc2o1)Nc1nc2c(s1)CCCC2 | inactive: -16.4% | 
CCOC(=O)c1c(NC(=O)/C=C/C(=O)O)sc(C)c1-c1ccc(F)cc1 |  | inconclusive: 11.2 µM [inhibitor, single point]
CCN(CCCNC(=O)c1cc2cc3cc(C)ccc3nc2s1)c1cccc(C)c1 | inactive: -16.2% | 
C=CCSc1nnc(NC(=O)CSCc2c(C)noc2C)s1 |  | inconclusive: 28.2 µM [inhibitor, single point]
CC(=O)N1c2ccc(S(=O)(=O)N3CCCCC3)cc2CC1C(=O)Nc1ccccc1C(F)(F)F (stereo not drawn) |  | inconclusive: 2.51 µM [inhibitor, full curve, poor fit]

Compound | activity change, negative = inhibition | Potency
O=c1c(Cl)c(Cl)cnn1Cc1nnc(-c2ccccc2Br)o1 |  | inconclusive: 7.08 µM [inhibitor, partial curve, poor fit]
COc1cc(/C=N/NC(=O)c2nnn(-c3nonc3N)c2C(C)C)ccc1OCc1ccc(F)cc1 | inactive: -5.43% | 
C=CCc1ccccc1OCC(O)CN(CC)CC (stereo not drawn) |  | inconclusive: 31.6 µM [inhibitor, single point]
COc1cc(CN2CCN(c3cccc(Cl)c3)CC2)cc(OC)c1OC |  | inconclusive: 2.82 µM [inhibitor, partial curve, poor fit]
CSc1ccc(S(=O)(=O)N(CC(=O)NCc2ccccn2)c2ccc(C)cc2)cc1 |  | inconclusive: 28.2 µM [inhibitor, single point]
Cc1ccccc1NC(=S)NC(C)CCc1ccccc1 (stereo not drawn) |  | inconclusive: 28.2 µM [inhibitor, single point]
COc1cc(C(=O)Nc2sc3c(c2C#N)CCCC3)c(Br)c(OC)c1OC |  | inconclusive: 2.24 µM [inhibitor, full curve, poor fit]
Cc1cccnc1C1=NOC(Cc2ccccc2)C(=O)N1Cc1ccccc1F (stereo not drawn) | inactive: 1.36% | 
COCCNC(=O)/C(C#N)=C/c1cccs1 |  | inconclusive: 11.2 µM [inhibitor, single point]
CS(=O)(=O)c1ncc(Cl)c(C(=O)N(Cc2ccc(Cl)cc2)Cc2ccco2)n1 |  | inconclusive: 14.1 µM [inhibitor, partial curve, poor fit]
CC1(Br)C(Sc2ccccc2[N+](=O)[O-])=Nc2ccccc21 (stereo not drawn) |  | inconclusive: 22.4 µM [inhibitor, single point]
C[C@H](CO)N1C[C@H](C)[C@@H](CN(C)Cc2ccc(Cl)c(Cl)c2)Oc2c(NC(=O)CCC(F)(F)F)cccc2C1=O |  | inconclusive: 6.31 µM [inhibitor, partial curve, poor fit]
COc1ccc(-c2csc(NC(C)=O)n2)cc1OC | inactive: -17% | 
CN(CC(=O)NC(=O)NCc1ccco1)Cc1nc2ccccc2c(=O)[nH]1 |  | inconclusive: 11.2 µM [inhibitor, single point]
COc1ccc(CNCCc2ccc(Cl)cc2)cc1OCc1ccccc1 |  | inconclusive: 28.2 µM [inhibitor, single point]
COc1ccc(CNC(=O)CSc2n[nH]c(C)c2[N+](=O)[O-])cc1 |  | inconclusive: 28.2 µM [inhibitor, single point]
O=C(NC(Nc1nc2ccc([N+](=O)[O-])cc2s1)(C(F)(F)F)C(F)(F)F)c1cccnc1 |  | inconclusive: 3.98 µM [inhibitor, full curve]
C=CCNC(=O)c1ccc(NC(=O)C2=CSCCO2)cc1 |  | inconclusive: 2.51 µM [inhibitor, partial curve, poor fit]
C=C(C)C1Cc2c(C)nn(-c3nc(C)cc(C)n3)c2C1 (stereo not drawn) |  | inconclusive: 2 µM [inhibitor, full curve, poor fit]
C/C(=N\NC(=S)Nc1ccc(F)cc1)C1CC1 |  | inconclusive: 28.2 µM [inhibitor, single point]
CN(C)CCCNc1c2c(nc3ccccc13)CCC2 |  | inconclusive: 31.6 µM [inhibitor, partial curve, poor fit]
COc1ccc(CC(NC(C)=O)C(=O)NC2CCN(c3c(Cc4ccccc4)c(C)nc4ncnn34)CC2)c(OC)c1 (stereo not drawn) |  | inconclusive: 11.2 µM [inhibitor, partial curve, poor fit]
